# According to PubChem BioAssay AID526 (National Center for Advancing Translational Sciences (NCATS), 2006):
# Among all 67,000 compounds or so, fewer than 10 were called active. The inconclusive results got no clear call from the source; some entries with a clear call stand among them for comparison. Calls follow the shape of the dose curve; as a rule, active = well fitted activation curve with a large enough effect (not every such curve was filed as active); inconclusive = small, poorly fitted or top-dose-only effect, or another doubt; inactive = no such curve, though single readings can be large or run the other way.
# Test: Ubiquitin-GFP Assay
# Conditions: Ubiquitin-GFP reporter cells, proteasome inhibition, GFP fluorescence; activation (GFP accumulation): at 45.9 µM (top of the series), untreated = 0%, 10 µM MG-132 = 100% unless noted
# Excerpt: NIH Chemical Genomics Center [NCGC]
# NIH Molecular Libraries Screening Centers Network [MLSCN]
# The ubiquitin-proteasome pathway is present within all eukaryotic cells and plays roles in normal cellular functions and disease-related dysfunction. Proteins are tagged with a poly-ubiquitin chain that targets them for the proteasome, a multimeric protease, that degrades the protein into peptides and free ubiquitin. The proteasome has a key role in regulating cell cycle and growth and is known to control the levels of cyclins and CDK inhibitors as well as tumor suppressor proteins. Additionally, the activation of NF- B is controlled by ubiquitin-labeling and degradation of the inhibitory protein I B . […] With this in mind, proteasome inhibitors such as MG-132 and PS-341 have been used to inhibit tumor cell growth.
# A cellular assay for ubiquitin-proteasome function was used to find chemical probes of this pathway. The assay used an ubiquitin-GFP construct expressed in U2OS cells (BioImage). Under basal conditions little GFP can be detected as it is degraded by the proteasome. However, treatment of the cells with a proteasome inhibitor such as MG-132 results in a rise in GFP levels that can be detected in as little as four hours. We used the Acumen-Explorer laser plate cytometer having a 488 nm laser as an excitation light source to detect the GFP. Compounds were screened in 1536-well plates using qHTS with a concentration-titration series range that varied from 46 uM to 2.9 nM.
# NCGC Assay Protocol Summary:
# Cells (U20S ps 2042) expressing ubiquitin (G76V-GFP) were maintained in DMEM with Glutamax-1 and high glucose, 10% FBS, 1% (v/v) penicillin-streptomycin, 0.5 mg/mL Geneticin (G418). The cells were seeded in 1536-well plates using a solenoid-based dispenser at 700 cells/5ul in DMEM medium with Glutamax-1 and high glucose containing 0.5% FBS, w/o phenol red, 25 mM HEPES. The plates were incubated at 37 °C/5% CO2 overnight. Then 23 nl of MG-132 in DMSO was added to the control wells at a final concentration of 10 uM. Next, 23 nL of library compounds in DMSO were added to the sample wells. The plates were incubated for 4 hrs at 37 °C/5% CO2. Following this incubation the plates were read on the Acumen using a cell object definition of 15 to 100 um in width and depth and a window of Total Intensity of between 77,200 and 2,720,000 FLU to enumerate GFP-expressing cells.
# The %Activity was determined from the basal and MG-132 treated control wells. %Activity was determined by normalizing to the difference in signal between basal cells (0% Activity) and cells incubated with 10 uM of the proteasome inhibitor MG-132 (100% Activity). Concentration-response curves were fitted to the signals arising from the GFP fluorescence.
# Assay Protocol Summary Table
# Sequence Parameter Value Description
# 2. Time O/N 37C incubation
# 4. Compound 23 nL Libraries (46 uM to 2.9 nM)
# 5. Time 4 hr 37C incubation
# 6. Detector Acumen Total Intensity, GFP fluorescence (488 ex/515 em)
# Keywords: NIH Roadmap, MLSCN, MLI, MLSMR, BioImage, proteasome, ubiquitin-GFP, qHTS, NCGC
row,SMILES,activation (GFP accumulation)
1,O=C(NC1CCCC1)c1csc2c1CCCC2,inconclusive: -6.64% [activator]
2,CC(=O)C1=C(O)CCC1=N,inconclusive: 4.07% [activator]
3,CC(=O)Oc1ccc(/C=c2\sc3ncnn3c2=O)cc1,inconclusive: -10.5% [activator]
4,CCN(CC)c1ccc2cc(-c3nc4ccccc4n3C)c(=O)oc2c1,"inconclusive: 54.5% [activator] [at 9.17 µM, untreated = 0%, 10 µM MG-132 = 100%]"
5,C(=C\c1ccccc1)/CSc1nnc(-c2cnccn2)n1Cc1ccco1,inconclusive: 39.9% [activator]
6,COC(=O)c1ccccc1NC(=O)c1cc(-c2ccc(OC)c(OC)c2)on1,inconclusive: 16.1% [activator]
7,Cc1cc(NC(=O)Nc2cccc(C(F)(F)F)c2)no1,inconclusive: 38.3% [activator]
8,COCCn1c(=O)c(-c2ccc(F)cc2)nc2cnc(Nc3cccc(OC)c3)nc21,inconclusive: 50% [activator]
9,CSc1nc2nc(-c3ccccc3)cc(C(F)(F)F)n2n1,inactive: -2.04%
10,c1ccc(CN2CCN(c3nc4ccccc4n4cnnc34)CC2)cc1,inactive: 6.83%
11,CC(=O)Nc1ccc(S(=O)(=O)Nc2nc3ccccc3nc2Sc2nncn2C)cc1,inconclusive: 31.4% [activator]
12,CC(C)=CC/C=C1\CCC(C(=O)O)C(C(=O)O)C1 (configuration not stated),inconclusive: 30.1% [activator]
13,COC(=O)c1ccc(C)c(NS(=O)(=O)c2ccc3c(c2)OCCO3)c1,"inconclusive: 30.1% [activator] [at 9.17 µM, untreated = 0%, 10 µM MG-132 = 100%]"
14,O=C(C1CCCN(S(=O)(=O)c2cnc[nH]2)C1)N(CCc1ccccc1)Cc1ccccc1 (configuration not stated),inconclusive: 0% [activator]
15,N=c1ccn2c(n1)O[C@H]1[C@@H](OP(=O)(O)O)[C@H](CO)O[C@H]12,"inactive: -2.2% [at 9.17 µM, untreated = 0%, 10 µM MG-132 = 100%]"
16,CCC(Sc1nc(=O)cc(N)n1-c1ccccc1)C(=O)Nc1cc(C)on1 (configuration not stated),"inconclusive: -4.55% [activator] [at 9.17 µM, untreated = 0%, 10 µM MG-132 = 100%]"
17,Cc1ccc(OCCNC(=O)c2ccco2)cc1C,inconclusive: 1.37% [activator]
18,N#Cc1ccc(CN2CC[C@@]3(CCCN(C(=O)c4ccco4)C3)C2)cc1,inactive: 6.67%
19,CCCCOc1ccccc1C1C(C(=O)OC)=CN(CC)C=C1C(=O)OC,"inconclusive: 33.1% [activator] [at 9.17 µM, untreated = 0%, 10 µM MG-132 = 100%]"
20,CC(=O)NCCn1c(SCC(=O)NCC2CCCO2)nc2ccccc2c1=O (configuration not stated),inconclusive: -3.33% [activator]
21,COc1ccc(CCNC(=O)Cn2c(=O)cnc3ccccc32)cc1,inconclusive: 16.1% [activator]
22,C=C(C)Cn1c(CCCNC(=O)C(C)(C)C)nc2ccccc21,inconclusive: 13% [activator]
23,CCCCNC(=O)C(C#N)c1nc2ccccc2nc1N1CCCC1 (configuration not stated),inconclusive: 107% [activator]

row,SMILES,activation (GFP accumulation)
1,COC(=O)C(CCSC)NC(=O)CNC(=O)C1CCCCC1 (configuration not stated),inconclusive: 8.11% [activator]
2,Cc1sc2nc(SCC(=O)OC(C)C)n(C)c(=O)c2c1C,inconclusive: 35% [activator]
3,O=C(Cn1c(S(=O)(=O)Cc2ccccc2)nc2ccccc21)N1CCCCC1,inconclusive: 34.1% [activator]
4,Cc1ccc(-c2nn(-c3ccccc3)c3[nH]c(=O)c(CNCCN(C)C)cc23)cc1,inconclusive: 85.9% [activator]
5,O=c1oc(-c2cccc(S(=O)(=O)N3CCOCC3)c2)nc2ccccc12,inconclusive: 2.38% [activator]
6,CNc1ncnc2c1ncn2[C@H]1C[C@@H](OP(=O)(O)O)[C@H](COP(=O)(O)O)O1,inactive: -4.59%
7,Oc1cccc2ccc(SSc3ccc4cccc(O)c4n3)nc12,"inactive: -4.62% [at 9.17 µM, untreated = 0%, 10 µM MG-132 = 100%]"
8,CC1(C)N(O)CC(c2cccs2)=[N+]1[O-],"inconclusive: 30.1% [activator] [at 9.17 µM, untreated = 0%, 10 µM MG-132 = 100%]"
9,CC(=O)Nc1ccc(NC(=O)c2ccccc2F)cc1,"inconclusive: 23.9% [activator] [at 9.17 µM, untreated = 0%, 10 µM MG-132 = 100%]"
10,COc1ccccc1N1CCN(C(=O)Cc2cccs2)CC1,"inconclusive: 34.7% [activator] [at 9.17 µM, untreated = 0%, 10 µM MG-132 = 100%]"
11,CNC(=O)C(Sc1ccccc1)c1ccccc1 (configuration not stated),"inconclusive: 31.8% [activator] [at 9.17 µM, untreated = 0%, 10 µM MG-132 = 100%]"
12,CC1(C)NC(C)(C)c2nonc2/C1=N\O,inconclusive: 32.4% [activator]
13,Cc1nc2ccccc2n1-c1nc(-c2ccco2)cc(C(F)(F)F)n1,inconclusive: -10.8% [activator]
14,O=C(c1cc(-c2ccc(Cl)cc2Cl)on1)N1CCOCC1,inactive: 1.33%
15,COc1ccc(CCNC(=O)c2ccco2)cc1,"inconclusive: 4.55% [activator] [at 9.17 µM, untreated = 0%, 10 µM MG-132 = 100%]"
16,CC1CCc2nn(CC(=O)Nc3c(F)cc(F)cc3Br)cc2C1 (configuration not stated),inconclusive: -2.94% [activator]
17,N[C@H](C(=O)O)[C@H](N)C(=O)O,"inactive: -5.06% [at 9.17 µM, untreated = 0%, 10 µM MG-132 = 100%]"
18,COC(=O)c1ccccc1NC(=O)C(C)NS(=O)(=O)c1ccc(OC)cc1 (configuration not stated),inconclusive: -1.67% [activator]
19,CN1CCN(c2ncc3nc(-c4ccccc4)c(=O)n(C)c3n2)CC1,inactive: -3.28%
20,CN(C)c1cc(-c2cccc(NS(C)(=O)=O)c2)ncn1,inactive: 1.64%
21,CCOc1ccc(N(C)S(=O)(=O)c2ccc3[nH]cc(C(=O)NCC4CCCO4)c(=O)c3c2)cc1 (configuration not stated),inconclusive: -1.67% [activator]
22,Cc1cc(CN2C(=O)c3ccccc3C2=O)cc(N2CCOCC2)c1,"inconclusive: 30.2% [activator] [at 9.17 µM, untreated = 0%, 10 µM MG-132 = 100%]"
23,CCN(CC)S(=O)(=O)c1cc(C(=O)Nc2ccc(Cl)cn2)ccc1C,"inconclusive: 33.2% [activator] [at 9.17 µM, untreated = 0%, 10 µM MG-132 = 100%]"

row,SMILES,activation (GFP accumulation)
1,CCOC(=O)C1=C(N)Oc2cc(C)n(CCc3ccc(OC)c(OC)c3)c(=O)c2C1c1cccnc1 (configuration not stated),inconclusive: -1.64% [activator]
2,c1ccc(CNCCN2CCNCC2)nc1,"inactive: 8.43% [at 9.17 µM, untreated = 0%, 10 µM MG-132 = 100%]"
3,COc1cccc(Nc2ncc3nc(-c4ccc(F)cc4)c(=O)n(CCC#N)c3n2)c1,inconclusive: 30.8% [activator]
4,Cn1c(=O)cc(OCCCC(=O)NCCCN2CCN(Cc3ccccc3)CC2)c2ccccc21,inconclusive: -3.12% [activator]
5,CC(=O)Nc1ccc(C2Nc3ccccc3C(=O)N2C2CCCCC2)cc1 (configuration not stated),inconclusive: 33.6% [activator]
6,CCOc1cc2c(cc1OCC)C(C(=O)O)C(c1cc(OC)c(OC)c(OC)c1)N(C)C2=O (configuration not stated),inconclusive: 0.862% [activator]
7,CCc1nc2oc3ccccc3c(=O)c2c(=O)n1CCOC,inactive: 2.96%
8,COC(=O)c1ccc(OCC(O)CN(CC(C)C)CC(C)C)cc1 (configuration not stated),inconclusive: 31.7% [activator]
9,O=C1NC(c2cccs2)C(C(=O)c2ccccc2)C(O)(C(F)(F)F)N1 (configuration not stated),"inconclusive: 0% [activator] [at 9.17 µM, untreated = 0%, 10 µM MG-132 = 100%]"
10,CCN(CC)c1ccc2c(Cl)c(Br)c(=O)oc2c1,inconclusive: 360% [activator]
11,Cn1c(=O)n(CC(=O)O)c(=O)c2c1nc1n2CCS1,inactive: -3.02%
12,CCN(Cc1ccccc1)Cc1cc(OC)cc(OC)c1,"inactive: 11.9% [at 9.17 µM, untreated = 0%, 10 µM MG-132 = 100%]"
13,CS(=O)(=O)Nc1ccccc1Oc1ccccc1,"inconclusive: -10.8% [activator] [at 9.17 µM, untreated = 0%, 10 µM MG-132 = 100%]"
14,CN1CCN(S(=O)(=O)c2ccc(NC(=O)c3cccc(S(=O)(=O)N4CCCC4)c3)cc2)CC1,"inconclusive: -6.23% [activator] [at 9.17 µM, untreated = 0%, 10 µM MG-132 = 100%]"
15,COc1ccc(C(c2nnnn2C(C)(C)C)N2CCN(c3nc4ccccc4s3)CC2)cc1 (configuration not stated),inactive: 1.75%
16,CCCc1nc2c(o1)CC(CC(C)SCC)CC2=O (configuration not stated),inconclusive: 46.8% [activator]
17,O=C(NCc1ccco1)c1cc(-c2ccccc2)c(N2CCOCC2)s1,inactive: 4.67%
18,COc1ccc(-n2c(=O)cnc3cnc(N(C)C)nc32)cc1,inconclusive: 30.9% [activator]
19,N#Cc1c(SCc2ccccc2)nc(N2CCOCC2)c2c1CCCC2,"inconclusive: 30.6% [activator] [at 9.17 µM, untreated = 0%, 10 µM MG-132 = 100%]"
20,O=C(NC1=NCCS1)c1ccc(-c2ccc(Cl)cc2)o1,inactive: 8.82%
21,CCC(=O)c1cc(F)c(N2CCN(S(=O)(=O)c3ccccc3)CC2)cc1C,"inconclusive: -1.27% [activator] [at 9.17 µM, untreated = 0%, 10 µM MG-132 = 100%]"
